The target of assay [1] is T1, HA-Wss1 (wild type, expressed in yeast) (S. cerevisiae) (UniProt P38838).
T1 sequence: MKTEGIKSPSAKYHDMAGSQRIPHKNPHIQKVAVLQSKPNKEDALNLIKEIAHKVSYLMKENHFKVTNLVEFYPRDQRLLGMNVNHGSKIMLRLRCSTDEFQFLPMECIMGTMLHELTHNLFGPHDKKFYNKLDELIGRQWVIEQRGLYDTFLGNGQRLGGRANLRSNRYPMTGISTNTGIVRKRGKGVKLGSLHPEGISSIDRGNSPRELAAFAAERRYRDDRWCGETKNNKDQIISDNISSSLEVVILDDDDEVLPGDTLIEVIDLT
Nature of the assay: co-IP; HA-Wss1 constructs expressed from pYEPGAP-URA3 in yeast; lysates (150 mM NaCl, 50 mM Tris pH 7.4, 0.5% Triton X-100, 30 mM NEM) on anti-HA beads, 1 hr at 4°C; western blot; DOA1-FLAG cells (Figure 5B) or wss1Δ cells treated with 0.2 μg/ml 4-NQO (Figure 8C). On the technique in general: Immunoblotting shows a protein as a band on a membrane.

For assay [2], the target named is T2, HA-Wss1 (recombinant, wild type) (S. cerevisiae), P38838.
T2 chain: T1 sequence
Nature of the assay: non-reducing gel electrophoresis; recombinant HA-Wss1 (200 μg/ml) incubated at 25°C with OPA (0–3 mM); Coomassie staining; the oligomers disappear with DTT (disulfide linked); both purified. Conditions: remark: other sources report otherwise.

These are yes or no findings as the source states them, for the method shown. For some assays here: In cells and extracts the contact can be indirect. Some binding calls cover weakened binding; strength is not graded here. Where a sequence is shown, tags or fusion partners need not be part of it.

B1: Doa1-FLAG (protein, UniProt P36037 1-715)
chain: MGYQLSATLKGHDQDVRDVVAVDDSKVASVSRDGTVRLWSKDDQWLGTVVYTGQGFLNSVCYDSEKELLLFGGKDTMINGVPLFATSGEDPLYTLIGHQGNVCSLSFQDGVVISGSWDKTAKVWKEGSLVYNLQAHNASVWDAKVVSFSENKFLTASADKTIKLWQNDKVIKTFSGIHNDVVRHLAVVDDGHFISCSNDGLIKLVDMHTGDVLRTYEGHESFVYCIKLLPNGDIVSCGEDRTVRIWSKENGSLKQVITLPAISIWSVDCMSNGDIIVGSSDNLVRIFSQEKSRWASEDEINELSTQVEKSTISSKTIEFDESKLSPYEILQSPGRKEGQIVVVKSPQGTIEAHQFSNSSWKKVGDVVGAGATGNDKKIEFEGKTYDYVFDVDIEDGKPPLKLPINVSDNPYTAADNFLARYELPMSYRDQVVQFILKNTNGISLDQPNDNASSSAVSPSKTSVMKVLPVKQYLIMENYNPDTIFNGIVKINSNEKTFDDEILAQIGGALHDIDESWELLLSFANTIRSNWEIKTPAYDIVRLIVKKLPYSSDIKDYIEEGLGNKNITLTMLTVRILVNCFNNENWGVKLLESNQVYKSIFETIDTEFSQASAKQSQNLAIAVSTLIFNYSALVTKGNSDLELLPIVADAINTKYGPLEEYQECEEAAYRLTVAYGNLATVEPTLRQFANSVTWLANIKRSYGNVPRFKDIFDDLS
With B1, in assay [1], the binding result is given as “binds”.

B2: HA-Wss1 (recombinant, wild type), P38838 1-269 (enzyme)
chain: T1 sequence
Turning to B2, the binding entry in assay [2] is reported as “binds”.

The record behind these values is publication PMC4559962.
